± gives the standard error. Variants at the floor of the assay are shown more often than the library holds them.
B1: glmS ribozyme (parent)
chain: AUAAAAGCGCCAGAACUACAGAAAUGUAGUUGACGAGGAGGAGGUUUAUCGAAUUUUCGGCGGAUGCCUCCAAA

How the values were obtained:
Settings in all cases: with glucosamine-6-phosphate
glucosamine-6-phosphate [1] = variants of: B1; experiment: self-cleavage kobs at 40 uM GlcN6P; higher = faster cleavage; RNA array
How it was run: (§1)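 E. coli RNA polymerase transcribed barcoded ribozyme variants in situ on sequenced MiSeq chips, which were tracked via a hybridised Cy3 probe at 37 °C. Tiles were imaged over ~14 h after glucosamine-6-phosphate (40 μM to 10 mM) in HEPES/KCl/Mg(OAc)2 buffer was flowed in. Normalised per-tile medians were fit to one- or two-exponential decays for kobs, and kcat and KM came from weighted Michaelis–Menten fits.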

glucosamine-6-phosphate [2] = variants of: B1; experiment: self-cleavage kobs at 640 uM GlcN6P; higher = faster cleavage; RNA array
How it was run: as §1

glucosamine-6-phosphate [3] = variants of: B1; experiment: self-cleavage kobs at 160 uM GlcN6P; higher = faster cleavage; RNA array
How it was run: as §1

glucosamine-6-phosphate [4] = variants of: B1; experiment: self-cleavage kobs at 2500 uM GlcN6P; higher = faster cleavage; RNA array
How it was run: as §1

glucosamine-6-phosphate [5] = variants of: B1; experiment: self-cleavage kobs at 10000 uM GlcN6P; higher = faster cleavage; RNA array
How it was run: as §1

| Variant | self-cleavage kobs at 40 uM GlcN6P (glucosamine-6-phosphate [1]) [s⁻¹] | self-cleavage kobs at 640 uM GlcN6P (glucosamine-6-phosphate [2]) [s⁻¹] | self-cleavage kobs at 160 uM GlcN6P (glucosamine-6-phosphate [3]) [s⁻¹] | self-cleavage kobs at 2500 uM GlcN6P (glucosamine-6-phosphate [4]) [s⁻¹] | self-cleavage kobs at 10000 uM GlcN6P (glucosamine-6-phosphate [5]) [s⁻¹] |
| --- | --- | --- | --- | --- | --- |
| A6U G51C | < 1e-05 | < 1e-05 | < 1e-05 | < 1e-05 | < 1e-05 |
| A6U G60U C70U | < 1e-05 |  |  |  | < 1e-05 |
| A6U U30A | < 1e-05 |  | < 1e-05 |  | 2.86e-05 ± 1e-05 |
| A6U U31A A33U G35U | < 1e-05 | < 1e-05 |  |  | < 1e-05 |
| A6U U57G | < 1e-05 |  |  |  |  |
| G7A A12G C61G | < 1e-05 | < 1e-05 |  |  |  |
| G7A A14C | < 1e-05 |  |  |  |  |
| G7A A14C G32U G40A | < 1e-05 |  |  | < 1e-05 |  |
| G7A A15G C58G G66U | < 1e-05 |  |  |  | < 1e-05 |
| G7A A42C | < 1e-05 | < 1e-05 | < 1e-05 |  |  |
| G7A A42G G44U | < 1e-05 |  |  |  | < 1e-05 |
| G7A A48U | < 1e-05 | < 1e-05 | < 1e-05 | < 1e-05 | < 1e-05 |
| G7A A53C | < 1e-05 | < 1e-05 | < 1e-05 | < 1e-05 |  |
| G7A A64U | < 1e-05 | < 1e-05 | < 1e-05 | < 1e-05 | < 1e-05 |
| G7A C11A A36G G37A | < 1e-05 |  |  |  | < 1e-05 |
| G7A G21U G37C A52G | < 1e-05 | < 1e-05 |  |  |  |
| G7A G44A | < 1e-05 | < 1e-05 | < 1e-05 |  | < 1e-05 |
| G7A G51A | < 1e-05 |  |  | < 1e-05 |  |
| G7C A36C A52U U56C C68U | < 1e-05 |  |  |  | < 1e-05 |
| G7C C8G G9C C11A | < 1e-05 |  |  |  | < 1e-05 |
| G7C G29C A64C | < 1e-05 | < 1e-05 | < 1e-05 | < 1e-05 |  |
| G7C G44C A64U | < 1e-05 |  |  |  | < 1e-05 |
| G7C G51U | < 1e-05 | < 1e-05 | < 1e-05 | < 1e-05 | < 1e-05 |
| G7C G63C C68G U69A | < 1e-05 |  |  |  | < 1e-05 |
| G7C U45G C61U G62C A64G | < 1e-05 | < 1e-05 | < 1e-05 | < 1e-05 | < 1e-05 |
| G7C U46G C71U | < 1e-05 |  |  |  |  |

| Variant | self-cleavage kobs at 40 uM GlcN6P (glucosamine-6-phosphate [1]) [s⁻¹] | self-cleavage kobs at 640 uM GlcN6P (glucosamine-6-phosphate [2]) [s⁻¹] | self-cleavage kobs at 160 uM GlcN6P (glucosamine-6-phosphate [3]) [s⁻¹] | self-cleavage kobs at 2500 uM GlcN6P (glucosamine-6-phosphate [4]) [s⁻¹] | self-cleavage kobs at 10000 uM GlcN6P (glucosamine-6-phosphate [5]) [s⁻¹] |
| --- | --- | --- | --- | --- | --- |
| G7C U55G | < 1e-05 |  |  |  | < 1e-05 |
| G7C U57C | < 1e-05 |  | < 1e-05 | < 1e-05 | < 1e-05 |
| G7U A12U A52G U55G | < 1e-05 |  |  |  |  |
| G7U A15C U30G | < 1e-05 |  |  |  |  |
| G7U A15U | < 1e-05 | < 1e-05 | < 1e-05 | < 1e-05 | < 1e-05 |
| G7U A36U | < 1e-05 | < 1e-05 | < 1e-05 |  |  |
| G7U A42G U49G C70G | < 1e-05 |  |  |  |  |
| G7U C8A G37A | < 1e-05 |  |  |  |  |
| G7U C8A G41C U49G U55A G60U C70U | < 1e-05 |  |  |  |  |
| G7U C8G U47G C58U C61G U69G | 0.000436 ± 0.00012 |  |  |  | 0.000464 ± 0.00012 |
| G7U C10A A15U | < 1e-05 | < 1e-05 |  | < 1e-05 |  |
| G7U C11A C16A G41A | < 1e-05 |  |  |  |  |
| G7U U30C U46A C68A | < 1e-05 |  |  |  |  |
| G7U U46C C70G | < 1e-05 |  |  | < 1e-05 | < 1e-05 |
| C8A A12C C50U | < 1e-05 | < 1e-05 |  |  | < 1e-05 |
| C8A A14U C50A U56C | < 1e-05 |  |  |  |  |
| C8A A39G | < 1e-05 |  | < 1e-05 |  | < 1e-05 |
| C8A A42U G62U | < 1e-05 |  |  | < 1e-05 |  |
| C8A A48C G59U | < 1e-05 |  |  |  | < 1e-05 |
| C8A A52C | < 1e-05 |  |  |  |  |
| C8A G9A G13A G41U G44A U49G A52G G60C A64U | < 1e-05 |  |  |  | < 1e-05 |
| C8A G29A G51U | < 1e-05 |  |  |  | < 1e-05 |
| C8A U30C | < 1e-05 |  |  | < 1e-05 | < 1e-05 |
| C8A U65A | < 1e-05 | < 1e-05 | < 1e-05 |  |  |
| C8A U65C | < 1e-05 |  |  | < 1e-05 | < 1e-05 |

From the supplement of paper PMC7125110
